# Results reported in the supplement of paper PMC10037445.
# Whole data set: some 2,900 compounds, median “NF-kB SEAP reporter activity, fold change vs agonist alone” near 0.99, cut for the highest 2% near 2.6. The list shows a part of the results.
# Legend:
# RAW-Dual [1] = test: NF-kB SEAP reporter activity, fold change vs agonist alone; cytotoxicity flag (confluency mask): not cytotoxic; higher = enhanced NF-kB activity
# In short: (§1)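 Library stock was pin-tooled at 50 nL into 384-well plates of RAW-Dual macrophages (50,000 cells/well, DMEM), followed 1 h later by a PRR agonist, and the cells were kept at 37 °C, 5% CO2. Supernatant collected after 20 hours was read for IRF by QuantiLuc luminescence and for NF-κB by QuantiBlue absorbance at 620 nm. Reporter activity is fold change over agonist-alone wells, and a well counted as cytotoxic when its IncuCyte confluency was below 70% of agonist controls in both mask sets.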
# RAW-Dual [2] = test: NF-kB SEAP reporter activity, fold change vs agonist alone; higher = enhanced NF-kB activity
# In short: as §1
# RAW-Dual [3] = test: NF-kB SEAP reporter activity, fold change vs agonist alone; cytotoxicity flag (confluency mask): cytotoxic (confluency <70% of control); higher = enhanced NF-kB activity
# In short: as §1
# [4] = agonist: ODN 1826 (TLR9) 0.5 ug/mL
# [5] = agonist: Pam2CSK4 (TLR2/6) 0.1 ug/mL
# [6] = agonist: Pam3CSK4 (TLR2/1) 0.1 ug/mL
# [7] = library stock concentration (final ~1000-fold dilution): 10 mM, cytotoxicity flag (confluency mask): not cytotoxic, agonist: Imiquimod (TLR7) […]
# [8] = library stock concentration (final ~1000-fold dilution): 10 mM, cytotoxicity flag (confluency mask): not cytotoxic, agonist: MPLA (TLR4) […]
smiles,measurement,setting,value
N#CC1CC2CC2N1C(=O)C(N)C12CC3CC(CC(O)(C3)C1)C2 (configuration not stated) (library stock concentration (final ~1000-fold dilution): 10 mM),NF-kB SEAP reporter activity,RAW-Dual [1]; agonist: LPS (TLR4) 0.1 ug/mL,1.1
same,NF-kB SEAP reporter activity,RAW-Dual [1]; [4],0.964
same,NF-kB SEAP reporter activity,RAW-Dual [1]; [5],0.892
same,NF-kB SEAP reporter activity,RAW-Dual [1]; [6],1.05
N#CC1CC2CC2N1C(=O)C(N)C12CC3CC(CC(O)(C3)C1)C2 (configuration not stated),NF-kB SEAP reporter activity,RAW-Dual [2]; [7],0.914
same,NF-kB SEAP reporter activity,RAW-Dual [2]; [8],0.875
O=C(O)CNC(=O)c1nc(Cl)c2ccccc2c1O,NF-kB SEAP reporter activity,RAW-Dual [2]; [7],1.01
same,NF-kB SEAP reporter activity,RAW-Dual [2]; [8],0.966
O=C(O)CNC(=O)c1nc(Cl)c2ccccc2c1O (library stock concentration (final ~1000-fold dilution): 10 mM),NF-kB SEAP reporter activity,RAW-Dual [1]; agonist: LPS (TLR4) 0.1 ug/mL,0.889
same,NF-kB SEAP reporter activity,RAW-Dual [1]; [4],0.952
same,NF-kB SEAP reporter activity,RAW-Dual [1]; [5],0.873
same,NF-kB SEAP reporter activity,RAW-Dual [1]; [6],1.04
CCOCc1nc2c(N)nc3ccccc3c2n1CC(C)(C)O (library stock concentration (final ~1000-fold dilution): 3.2 mM),NF-kB SEAP reporter activity,RAW-Dual [1]; agonist: LPS (TLR4) 0.1 ug/mL,3.55
same,NF-kB SEAP reporter activity,RAW-Dual [1]; [4],1.69
same,NF-kB SEAP reporter activity,RAW-Dual [1]; [5],0.415
same,NF-kB SEAP reporter activity,RAW-Dual [1]; [6],0.673
CCOCc1nc2c(N)nc3ccccc3c2n1CC(C)(C)O,NF-kB SEAP reporter activity,"RAW-Dual [2]; library stock concentration (final ~1000-fold dilution): 3.2 mM, cytotoxicity flag (confluency mask): not cytotoxic, agonist: Imiquimod (TLR7) […]",1.27
same,NF-kB SEAP reporter activity,"RAW-Dual [2]; library stock concentration (final ~1000-fold dilution): 3.2 mM, cytotoxicity flag (confluency mask): not cytotoxic, agonist: MPLA (TLR4) […]",2.17
CSCCNc1nc(SCCC(F)(F)F)nc2c1ncn2C1OC(COP(=O)(O)OP(=O)(O)C(Cl)(Cl)P(=O)(O)O)C(O)C1O (configuration not stated),NF-kB SEAP reporter activity,"RAW-Dual [2]; library stock concentration (final ~1000-fold dilution): 10 mM water, cytotoxicity flag (confluency mask): not cytotoxic, agonist: Imiquimod (TLR7) […]",0.972
same,NF-kB SEAP reporter activity,"RAW-Dual [2]; library stock concentration (final ~1000-fold dilution): 10 mM water, cytotoxicity flag (confluency mask): not cytotoxic, agonist: MPLA (TLR4) […]",1.04
CSCCNc1nc(SCCC(F)(F)F)nc2c1ncn2C1OC(COP(=O)(O)OP(=O)(O)C(Cl)(Cl)P(=O)(O)O)C(O)C1O (configuration not stated) (library stock concentration (final ~1000-fold dilution): 10 mM water),NF-kB SEAP reporter activity,RAW-Dual [1]; agonist: LPS (TLR4) 0.1 ug/mL,1.15
same,NF-kB SEAP reporter activity,RAW-Dual [1]; [4],1.26
same,NF-kB SEAP reporter activity,RAW-Dual [1]; [5],1.18
same,NF-kB SEAP reporter activity,RAW-Dual [1]; [6],0.935
Cn1cc(-c2ccc(S(=O)(=O)n3ccc(/C=C/C(=O)Nc4ccccc4N)c3)cc2)cn1 (library stock concentration (final ~1000-fold dilution): 10 mM),NF-kB SEAP reporter activity,RAW-Dual [3]; agonist: LPS (TLR4) 0.1 ug/mL,4.11
same,NF-kB SEAP reporter activity,RAW-Dual [3]; [4],3.13
same,NF-kB SEAP reporter activity,RAW-Dual [3]; [5],1.14
same,NF-kB SEAP reporter activity,RAW-Dual [3]; [6],2.27
Cn1cc(-c2ccc(S(=O)(=O)n3ccc(/C=C/C(=O)Nc4ccccc4N)c3)cc2)cn1,NF-kB SEAP reporter activity,"RAW-Dual [2]; library stock concentration (final ~1000-fold dilution): 10 mM, cytotoxicity flag (confluency mask): cytotoxic (confluency <70% of control), agonist: Imiquimod (TLR7) […]",1.68
same,NF-kB SEAP reporter activity,"RAW-Dual [2]; library stock concentration (final ~1000-fold dilution): 10 mM, cytotoxicity flag (confluency mask): cytotoxic (confluency <70% of control), agonist: MPLA (TLR4) […]",2.37
CCc1oc2ccccc2c1C(=O)c1cc(Br)c(O)c(Br)c1,NF-kB SEAP reporter activity,RAW-Dual [2]; [7],0.997
same,NF-kB SEAP reporter activity,RAW-Dual [2]; [8],1.19
